Experiment [1] concerns the target T1, TAP-tagged BEX4 (U2OS) (human) (UniProt Q9NWD9).
T1 sequence: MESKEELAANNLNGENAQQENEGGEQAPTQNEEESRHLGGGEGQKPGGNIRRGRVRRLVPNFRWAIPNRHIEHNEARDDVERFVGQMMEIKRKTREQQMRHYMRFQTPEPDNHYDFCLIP
The experiment can be described thus: pull-down; lysates of U2OS cells transfected with TAP or TAP-BEX4 incubated with streptavidin beads; bound proteins immunoblotted.

Chains of the proteins cited; added tags and fusions are not shown.
UniProt Q5SQI0: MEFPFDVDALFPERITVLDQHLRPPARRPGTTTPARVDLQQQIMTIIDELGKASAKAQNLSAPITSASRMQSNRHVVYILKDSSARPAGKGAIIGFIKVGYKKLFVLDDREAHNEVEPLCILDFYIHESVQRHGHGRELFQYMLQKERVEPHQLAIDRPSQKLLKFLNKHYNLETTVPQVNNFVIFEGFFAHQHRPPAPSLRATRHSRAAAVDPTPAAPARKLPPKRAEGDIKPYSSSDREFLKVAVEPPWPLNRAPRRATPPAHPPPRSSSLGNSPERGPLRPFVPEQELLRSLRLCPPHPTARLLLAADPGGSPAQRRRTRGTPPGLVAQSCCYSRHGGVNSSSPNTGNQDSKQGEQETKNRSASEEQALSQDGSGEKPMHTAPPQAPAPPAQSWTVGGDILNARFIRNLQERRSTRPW
UniProt Q9UBN7: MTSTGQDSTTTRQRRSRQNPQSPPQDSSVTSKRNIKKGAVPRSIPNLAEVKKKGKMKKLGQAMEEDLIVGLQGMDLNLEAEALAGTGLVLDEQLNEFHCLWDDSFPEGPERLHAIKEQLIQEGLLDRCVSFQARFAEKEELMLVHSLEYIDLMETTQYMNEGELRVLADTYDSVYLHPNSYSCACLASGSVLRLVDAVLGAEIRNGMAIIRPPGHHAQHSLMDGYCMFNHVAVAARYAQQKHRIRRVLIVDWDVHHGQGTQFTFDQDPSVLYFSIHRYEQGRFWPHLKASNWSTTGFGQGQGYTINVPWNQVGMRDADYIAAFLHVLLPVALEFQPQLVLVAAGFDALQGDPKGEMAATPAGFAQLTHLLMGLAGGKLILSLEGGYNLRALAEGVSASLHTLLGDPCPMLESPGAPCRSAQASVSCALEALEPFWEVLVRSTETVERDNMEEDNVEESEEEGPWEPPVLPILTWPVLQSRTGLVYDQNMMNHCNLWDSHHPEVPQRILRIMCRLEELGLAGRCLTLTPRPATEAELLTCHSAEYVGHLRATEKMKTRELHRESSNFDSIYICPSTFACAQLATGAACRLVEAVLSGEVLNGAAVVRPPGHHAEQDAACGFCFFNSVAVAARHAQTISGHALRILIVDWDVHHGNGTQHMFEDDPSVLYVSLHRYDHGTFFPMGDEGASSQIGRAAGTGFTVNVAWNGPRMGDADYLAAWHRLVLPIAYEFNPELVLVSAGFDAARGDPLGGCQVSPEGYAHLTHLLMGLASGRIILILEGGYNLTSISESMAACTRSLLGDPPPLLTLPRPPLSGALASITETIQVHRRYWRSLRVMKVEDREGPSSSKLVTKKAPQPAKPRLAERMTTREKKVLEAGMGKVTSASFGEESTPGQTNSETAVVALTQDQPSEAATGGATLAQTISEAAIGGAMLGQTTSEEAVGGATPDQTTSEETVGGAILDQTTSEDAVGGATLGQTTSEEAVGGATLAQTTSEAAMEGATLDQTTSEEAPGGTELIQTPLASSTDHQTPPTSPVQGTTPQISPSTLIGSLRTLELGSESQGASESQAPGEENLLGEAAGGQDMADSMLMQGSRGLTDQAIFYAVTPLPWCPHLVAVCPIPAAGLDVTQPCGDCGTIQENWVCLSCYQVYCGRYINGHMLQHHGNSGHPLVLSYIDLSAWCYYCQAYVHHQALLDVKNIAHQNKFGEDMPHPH

In experiment [2] the target is T2, BEX4 (endogenous, U2OS) (human (endogenous in U2OS)) (UniProt Q9NWD9).
T2 sequence: T1 sequence
The experiment can be described thus: co-IP; U2OS cell lysates immunoprecipitated with anti-BEX4 antibody and immunoblotted.

Experiment [3] addresses T3, GST-BEX4 (full-length; FL) (human) (UniProt Q9NWD9).
T3 sequence: T1 sequence
The experiment can be described thus: pull-down; U2OS cell extracts incubated with beads bound to GST, GST-BEX4 (FL) or GST-BEX4 N, M, C; bound proteins immunoblotted; only the target purified.

The target of experiment [4] is T4, GST-BEX4 N-terminal (N; 1~60 a.a) (human) (UniProt Q9NWD9).
T4 sequence: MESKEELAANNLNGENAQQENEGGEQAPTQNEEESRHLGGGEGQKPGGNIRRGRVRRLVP
The experiment is described as above.

Experiment [5] deals with T5, GST-BEX4 C-terminal (C; 61 ~120 a.a) (human) (UniProt Q9NWD9).
T5 sequence: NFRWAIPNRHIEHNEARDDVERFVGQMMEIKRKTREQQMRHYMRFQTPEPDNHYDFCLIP
Described as above.

Experiment [6] has as its target T3, GST-BEX4 (full-length; FL) (human). Described as above. This is another data set of the same source.
Experiment [7] concerns the target T6, GST-BEX4 middle (M; 31~90 a.a) (human) (UniProt Q9NWD9).
T6 sequence: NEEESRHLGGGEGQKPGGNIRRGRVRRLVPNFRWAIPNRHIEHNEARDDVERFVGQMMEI
The experiment is described as above.

The target of another experiment is T7, GST-SIRT2 wild type (WT) (UniProt Q8IXJ6).
T7 sequence: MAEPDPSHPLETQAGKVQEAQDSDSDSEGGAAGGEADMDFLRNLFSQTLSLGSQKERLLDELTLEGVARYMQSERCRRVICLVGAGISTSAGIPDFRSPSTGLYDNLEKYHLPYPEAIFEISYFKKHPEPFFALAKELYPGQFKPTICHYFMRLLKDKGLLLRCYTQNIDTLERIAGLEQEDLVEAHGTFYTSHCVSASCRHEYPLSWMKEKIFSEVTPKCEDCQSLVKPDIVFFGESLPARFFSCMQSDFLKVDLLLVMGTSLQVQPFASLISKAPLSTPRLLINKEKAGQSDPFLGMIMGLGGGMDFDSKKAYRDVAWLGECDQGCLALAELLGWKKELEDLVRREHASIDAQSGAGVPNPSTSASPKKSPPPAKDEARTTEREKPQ
The experiment can be described thus: pull-down; purified GST, GST-SIRT2 (WT) or GST-SIRT2 H187Y incubated with U2OS cell extracts and pulled down with beads; bound proteins immunoblotted; only the target purified.

The target in another experiment is T8, GST-SIRT2 H187Y mutant (UniProt Q8IXJ6).
T8 sequence: T7 sequence with H187Y
Described as above.

Substitutions are numbered along the chain they refer to. Read-outs that look alike come from different tables or passages of the source. These are yes or no findings as the source states them, for the method shown. In cells and extracts the contact can be indirect. Some binding calls cover weakened binding; strength is not graded here. For some assays here: Sequences can lack the tags named with a protein.

Turning to “alpha tubulin acetyltransferase 1 (endogenous, U2OS) (from UniProt Q5SQI0 1-421) (enzyme)”, the binding result in [1], in experiment [2] and in experiment [3] was “no binding” in each case.
For the molecule “histone deacetylase 6 (endogenous, U2OS) (from UniProt Q9UBN7 1-1215) (enzyme)”, the binding result in experiment [1], in experiment [2] and in [3] was “no binding” in each case.

B1: sirtuin 2 (endogenous, U2OS) (enzyme, UniProt Q8IXJ6 1-389)
chain: T7 sequence
As to B1, the binding result in experiment [1] is reported as “binds”; in [2], “binds”; in experiment [4] it was “no binding”; in experiment [5], “no binding”; in experiment [6] it was “binds”; in [7], “binds”.

B2: BEX4 (endogenous, U2OS) (protein, UniProt Q9NWD9 1-120)
chain: T1 sequence
Consider B2, for which the binding entry is reported as “binds” in the experiment with GST-SIRT2 wild type (WT) and “no binding” in the experiment with GST-SIRT2 H187Y mutant.

The record behind these values is article PMC5108325.
